Numbering of substitutions follows the chain as printed.
Columns and labels:
CD123 = target: T1, CD123 (Homo sapiens, UniProt P26951); experiment: target (CD123) binding of conjugate
T1 sequence (P26951 19-378): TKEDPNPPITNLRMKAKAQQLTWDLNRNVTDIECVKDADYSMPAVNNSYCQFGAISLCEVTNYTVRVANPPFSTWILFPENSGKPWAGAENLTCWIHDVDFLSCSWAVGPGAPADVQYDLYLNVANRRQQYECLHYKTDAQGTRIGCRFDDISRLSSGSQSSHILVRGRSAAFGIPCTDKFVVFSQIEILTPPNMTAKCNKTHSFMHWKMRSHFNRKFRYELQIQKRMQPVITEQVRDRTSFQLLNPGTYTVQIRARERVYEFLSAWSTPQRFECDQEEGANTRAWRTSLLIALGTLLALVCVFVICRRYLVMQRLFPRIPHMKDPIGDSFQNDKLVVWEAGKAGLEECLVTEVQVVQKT

SHI-1 cells = experiment: in vitro cytotoxicity (WST-8) on SHI-1 cells; type: cell-based; details: SHI-1 cells (AML)
Experimental: (§1) The ability of site-specific conjugates of huCD123-6 with the various IGN compounds (huCD123-6Rv1.1S2-SeriMab-D8) to kill cells that express CD123 on their cell surface was compared to that of the lysine-linked conjugates containing the matching antibody and the payload (huCD123-6Rv1.1-D2) using in vitro cytotoxicity assays. The cytotoxicity assays were carried out and analyzed as described below.
(§2) The cell lines were cultured in culture medium as recommended by the cell supplier (ATCC or DSMZ). The cells, 2,000 to 10,000 in 100 μL of the culture medium, were added to each well of flat bottom 96-well plates. To block Fc receptors on the cell surface, the culture medium was supplemented with 100 nM chKTI antibody (an antibody of the same isotype). Conjugates were diluted into the culture medium using 3-fold dilution series and 100 μL were added per well. […] Then the relative number of viable cells in each well was determined using the WST-8 based Cell Counting Kit-8 (Dojindo Molecular Technologies, Inc., Rockville, Md.). The apparent surviving fraction of cells in each well was calculated by first correcting for the medium background absorbance, and then dividing each value by the average of the values in the control wells (non-treated cells). […]

MOLM-1 cells = experiment: in vitro cytotoxicity (WST-8) on MOLM-1 cells; type: cell-based; details: MOLM-1 cells (CML)
Experimental: as §1, §2

HNT-34 cells = experiment: in vitro cytotoxicity (WST-8) on HNT-34 cells; type: cell-based; details: HNT-34 cells (AML)
Experimental: as §1, §2

[1] = system: NCI-H2110 NSCLC xenografts; experiment: antitumor activity against NCI-H2110 NSCLC xenografts in SCID mice; type: in vivo
Experimental: Female CB.17 SCID mice, 6 weeks old, were received from Charles River Laboratories. Mice were inoculated with 1×10^7 NCI-H2110 tumor cells suspended in 0.1 ml 50% matrigel/serum free medium by subcutaneous injection in the right flank. When tumor volumes reached approximately 100 mm^3 (day 7 post inoculation), animals were randomized based on tumor volume into 4 groups of 6 mice each. Mice received a single IV administration of vehicle control (0.2 ml/mouse) or huMOV19NTS#2-Linker1-Compound A ([6], scheme 1) conjugate at 10, 25 or 50 g/kg based on compound A concentration on day 1 (day 8 post inoculation).
Tumor size was measured twice to three times weekly in three dimensions using a caliper. […] A mouse was considered to have a partial regression (PR) when tumor volume was reduced by 50% or greater, complete tumor regression (CR) when no palpable tumor could be detected. Tumor volume was determined by StudyLog software.
Tumor growth inhibition (T/C Value) was determined using the following formula: T/C (%)=Median tumor volume of the treated/Median tumor volume of the control×100.
Tumor volume was determined simultaneously for treated (T) and the vehicle control (C) groups when tumor volume of the vehicle control reached predetermined size of 1000 mm^3. The daily median tumor volume of each treated group was determined, including tumor-free mice (0 mm^3). […]

KB cells = experiment: in vitro cytotoxicity (WST-8) on KB cells; type: cell-based
Experimental: 100 μl/well of each ADC was diluted in RPMI-1640 (Life Technologies) supplemented with heat-inactivated 10% FBS (Life Technologies) and 0.1 mg/ml gentamycin (Life Technologies) in a 96-well plate (Corning, flat bottom) at starting concentrations of 3.5×10^−9 M to 3.5×10^−8 M in triplicate and serially diluted 3-fold in media above at ambient temperature. KB cells (buccal epithelial tumor), grown in EMEM (ATCC) supplemented with heat-inactivated 10% FBS (Life Technologies) and 0.1 mg/ml gentamycin (Life Technologies), were washed once in PBS and removed with 0.05% trypsin-EDTA (Life Technologies). Other cells tested were NCI-H2110 (NSCLC) and T47D (breast epithelial) grown in RPMI-1640 (LifeTechnologies) supplemented with heat-inactivated 10% FBS (Life Technologies) and 0.1 mg/ml gentamycin (Life Technologies). T47D media also was supplemented with 0.2 IU/ml bovine insulin. All cells were resuspended in growth media (see above) to neutralize trypsin and counted on a Coulter counter. […] Total volume is 200 μl/well. After incubation, cell viability was analyzed by addition of 20 μl/well WST-8 (Dojindo) and allowed to develop for 2 hr. Absorbance was read on a plate reader at 450 and 620 nm. Absorbances at 620 nm were subtracted from absorbances at 450 nm. Background in wells containing media only was further subtracted from corrected absorbances and surviving fraction (SF) of untreated cells was calculated in Excel. An XY graph of ADC concentration (M) vs. SF was created using Graph Pad Prism.
In vitro potency of SeriMab-D8 conjugate (huMOV19-NTS#2-SeriMab-D8) was tested on KB cells (FIG. 26A), Ishikawa cells (human endometrial adenocarcinoma cells) (FIG. 26B), and HEC-1B cells (human endometrial adenocarcinoma cells) (FIG. 26C) using assay protocols similar to that described in Example 8.

HEC-1B cells = experiment: in vitro potency on HEC-1B cells; type: cell-based, human
Experimental: (§3) 100 μl/well of each ADC was diluted in RPMI-1640 (Life Technologies) supplemented with heat-inactivated 10% FBS (Life Technologies) and 0.1 mg/ml gentamycin (Life Technologies) in a 96-well plate (Corning, flat bottom) at starting concentrations of 3.5×10^−9 M to 3.5×10^−8 M in triplicate and serially diluted 3-fold in media above at ambient temperature. KB cells (buccal epithelial tumor), grown in EMEM (ATCC) supplemented with heat-inactivated 10% FBS (Life Technologies) and 0.1 mg/ml gentamycin (Life Technologies), were washed once in PBS and removed with 0.05% trypsin-EDTA (Life Technologies). Other cells tested were NCI-H2110 (NSCLC) and T47D (breast epithelial) grown in RPMI-1640 (LifeTechnologies) supplemented with heat-inactivated 10% FBS (Life Technologies) and 0.1 mg/ml gentamycin (Life Technologies). T47D media also was supplemented with 0.2 IU/ml bovine insulin. All cells were resuspended in growth media (see above) to neutralize trypsin and counted on a Coulter counter. […] After incubation, cell viability was analyzed by addition of 20 μl/well WST-8 (Dojindo) and allowed to develop for 2 hr. Absorbance was read on a plate reader at 450 and 620 nm. Absorbances at 620 nm were subtracted from absorbances at 450 nm. Background in wells containing media only was further subtracted from corrected absorbances and surviving fraction (SF) of untreated cells was calculated in Excel. […]

[2] = in vivo tolerability study in CD-1 mice; details: female CD-1 mice, intravenous, 200 μg/kg (D8 drug dose)
Experimental: Female CD-1 mice (7 weeks of age) were obtained from Charles River Laboratories.
Mice were randomized into three groups by body weight. The body weights ranged from 25.6 to 24.1 grams with an average of 25 grams. […] Administration of all conjugates was carried out intravenously with a 1.0 ml syringe fitted with a 27 gauge, ½ inch needle. Individual body weights were measured at the indicated time points in FIG. 29 and the % change is graphed vs. time (days). Each line represents the body weight changes of one mouse. Animals that were moribund or experienced body weight loss >20% were sacrificed, as this is defined as an intolerable dose.

Ishikawa cells = experiment: in vitro potency on Ishikawa cells; type: cell-based, human
Experimental: as §3

[3] = in vivo stability of oxime linkage, affinity capture LC-MS of mouse plasma; details: CD-1 mice, 10 mg/kg
Experimental: Commercially available xMag-Streptavidin Microparticles (Biochain, CA) were washed with washing buffer (50 mM Tris. HCl, 0.15 M NaCl, pH 8.0) twice and resuspended in the same buffer to their original volume. Biotinylated Fc-FRα (2.6 Biotin/Fc-FRα; ˜114 μg) was then added to the streptavidin particles (200 μL) and rotated at room temperature for 2 h. The beads were washed 3 times with washing buffer and re-suspended to their original volume in washing buffer with 0.4% Tween 20.
Plasma samples were collected from CD-1 mice dosed with 10 mg/kg huMOV19-NTS#2-aminooxy-acetyl-MayNMA conjugate at 2 min, 1 day, and 3 days, and was added to streptavidin-biotin-FRα-Fc particles (200 μL per sample) along with final 20% washing buffer and 0.2% Tween-20. After gentle shaking at room temperature for 2 h, the resin was washed 3 times with 1 mL washing buffer and eluted using 50 μL of 0.1 M citric acid/sodium citrate, pH 3.0, 50% ethylene glycol. […] HCl, pH 8.5, and then analyzed by SEC or SEC-LC/MS as described previously (Lazar, Wang et al. 2005).

B1: huCD123-6Rv1.1S2-SeriMab-D8 (conjugate)
heavy: SFQLVQSGAEVVKPGASVKMSCKASGYTFTSSIMHWMKQKPGQGLEWIGYIKPYNDGTKYNQKFQGKATLTSDKSSSTANMELNSLTSEDSAVYYCAREGGNDYYDTMDYWGQGTSVTVSS[human IgG1 constant region left out here]
light: DIQMTQSPSSMSASVGERVTITCRASQDINSYLSWFQQKPGKSPKTLIYRVNRLVDGVPSRFSGSGSGQDYSLTISSLEPEDMGIYYCLQYDAFPYTFGQGTKLEIKRTVAAPSVFIFPPSDEQLKSGTASVVCLLNNFYPREAKVQWKVDNALQSGNSQESVTEQDSKDSTYSLSSTLTLSKADYEKHKVYACEVTHQGLSSPVTKSFNRGEC
target (CD123) binding (CD123): maintained target (CD123) binding

B2: huCD123-6Rv1.1-D2 (conjugate)
heavy: B1 heavy with S1Q
light: B1 light
IC50 (SHI-1 cells): ~0.01 nM | IC50 (MOLM-1 cells): ~0.03 nM | IC50 (HNT-34 cells): ~0.002 nM

B3: huMOV19-NTS#2-Linker1-Compound A (conjugate)
heavy: SVQLVQSGAEVVKPGASVKISCKASGYTFTGYFMNWVKQSPGQSLEWIGRIHPYDGDTFYNQKFQGKATLTVDKSSNTAHMELLSLTSEDFAVYYCTRYDGSRAMDYWGQGTTVTVSS[human IgG1 constant region left out here]
light: DIVLTQSPLSLAVSLGQPAIISCKASQSVSFAGTSLMHWYHQKPGQQPRLLIYRASNLEAGVPDRFSGSGSKTDFTLTISPVEAEDAATYYCQQSREYPYTFGGGTKLEIKRTVAAPSVFIFPPSDEQLKSGTASVVCLLNNFYPREAKVQWKVDNALQSGNSQESVTEQDSKDSTYSLSSTLTLSKADYEKHKVYACEVTHQGLSSPVTKSFNRGEC
anti-tumor activity ([1]; single IV dose 25 μg/kg based on compound A): highly active | anti-tumor activity ([1]; single IV dose 50 μg/kg based on compound A): highly active | antigen-independent potency of the two conjugates (KB cells; KB cells, in the presence of 1 μM unconjugated huMOV19): nearly identical

B4: huMOV19-SeriMab-D8 (conjugate)
heavy: B3 heavy
light: B3 light
antigen-specific potency compared with lysine conjugate huMOV19-D2 (HEC-1B cells): comparable antigen-specific potency | antigen-specific potency compared with lysine conjugate huMOV19-D2 (KB cells; KB cells): comparable antigen-specific potency | tolerability, body weight loss over 2 weeks [2]: well tolerated | antigen-specific potency compared with lysine conjugate huMOV19-D2 (Ishikawa cells): comparable antigen-specific potency

B5: SeriMab-May: huMOV19-NTS#2 linked through the engineered N-terminal Ser (oxime) to maytansinoid MayNMA, two per antibody (conjugate)
heavy: B3 heavy
light: B3 light
half-life of maytansine elimination [3]: approximately 17 days | stability of oxime linkage in mouse circulation ([3]; plasma at 2 min, 1 day, 3 days): stable over 3 days | potency compared with lysine-conjugate Ab-SMCC-DM1 (KB cells; KB cervical cancer cell line): same potency

From patent US10988531B2, “Conjugates comprising cell-binding agents and cytotoxic agents” (ImmunoGen, Inc., priority 2014, dated 2021)
